Test results: PubChem BioAssay (NCATS)
Values joined by “and” are separate entries in the source; they are usually repeats but may differ in a detail not shown here. Equal entries are not always repeated. The shares of active, inactive and inconclusive entries below differ from those in the screen. For some assays here: A potency beside an inconclusive call is a rough fit, not a confirmed value. Active and inactive are the calls of the source. The call rests on the fitted dose curve; in most records, active means well fitted curve in the direction sought with a large enough effect; inconclusive means small, poorly fitted or top-dose-only effect, or another doubt; inactive means no such curve, though single readings can be large; an effect the other way counts as inactive or inconclusive.

Columns and labels:
Es-2 = test: Primary qHTS to identify gynecologic anti-cancer compounds using libraries of approved drugs and bioactive compounds (AID 1345084); conditions: Gynecologic cancer cell panel viability, ATPlite luminescence, 48 h; series mostly up to 57.5 µM; further: nearly all actives have a fitted effect of over 55% in size; further: potency means the concentration at half of the fitted maximal effect; on activity change, negative = cytotoxicity: on the % scale 0 is the no-effect control and ±100 the full control effect
Procedure, shortened: (§1)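 Cells, 1,000 per well, plated 16 h, then exposed 48 h at 37 C to compounds. Viability by ATPlite luminescence after 15 min at room temperature.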

SKOV3 = test: as above; conditions: Gynecologic cancer cell panel viability, ATPlite luminescence, 48 h; activity change, negative = cytotoxicity: at 57.5 µM (top of the series) unless noted
Procedure, shortened: as §1

Tov112D = test: as above; conditions: Gynecologic cancer cell panel viability, ATPlite luminescence, 48 h; series mostly up to 57.5 µM
Procedure, shortened: as §1

CASKI = test: as above; conditions: Gynecologic cancer cell panel viability, ATPlite luminescence, 48 h; series mostly up to 57.5 µM
Procedure, shortened: as §1

PA-1 = test: as above; conditions: Gynecologic cancer cell panel viability, ATPlite luminescence, 48 h; series mostly up to 57.5 µM
Procedure, shortened: as §1

Tov-21-G = test: as above; conditions: Gynecologic cancer cell panel viability, ATPlite luminescence, 48 h; series mostly up to 57.5 µM
Procedure, shortened: as §1

HeLa = test: as above; conditions: Gynecologic cancer cell panel viability, ATPlite luminescence, 48 h; series mostly up to 57.5 µM
Procedure, shortened: as §1

JEG-3 = test: as above; conditions: Gynecologic cancer cell panel viability, ATPlite luminescence, 48 h; series mostly up to 57.5 µM
Procedure, shortened: as §1

[1] = qHTS assay to identify inhibitors of the type 1 interferon - major histocompatibility complex class I in skeletal muscle: Counter screen cell viability and HiBit confirmation (AID 1347412); conditions: iHSKM muscle cells + IFN-b, HiBiT or CellTiter-Glo, 24 h; Viability; at 45.9 µM (top of the series); further: on the % scale 0 is the no-effect control and ±100 the full control effect; nearly all actives have a fitted effect of over 60% in size
Procedure, shortened: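 Human myoblast knock-in line, 4.0 ng/ml IFN-beta stimulation, 24 h compound treatment. Endpoints: HiBiT lytic luminescence (HLA-B level) and CellTiter Glo (ATP). Dosing 12 concentrations, 3-fold steps, 46 uM highest final.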

Hek293T = test: Primary qHTS to identify gynecologic anti-cancer compounds using libraries of approved drugs and bioactive compounds (AID 1345084); conditions: Gynecologic cancer cell panel viability, ATPlite luminescence, 48 h, control line for the selectivity index; series mostly up to 57.5 µM; further: nearly all actives have a fitted effect of over 55% in size; further: potency means the concentration at half of the fitted maximal effect; on activity change, negative = cytotoxicity: on the % scale 0 is the no-effect control and ±100 the full control effect
Procedure, shortened: as §1

OV90 = test: as above; conditions: Gynecologic cancer cell panel viability, ATPlite luminescence, 48 h; series mostly up to 57.5 µM
Procedure, shortened: as §1

astro = test: Drug repurposing screens with cells derived from glioblastoma tumor samples (AID 1345199); conditions: viability, ATP luminescence, 48 h; activity, negative = cell killing: at 45.9 µM (top of the series); further: potency means the concentration at half of the fitted maximal effect; nearly all actives have a fitted effect of over 40% in size
Procedure, shortened: (§2)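 Primary testing used CD133+ neurospheres from four GBM patients, seven concentrations, 48 h exposure and ATP-based viability; confirmation added three slower-growing patient lines.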

[2] = as above; conditions: GBM patient neurospheres viability, ATP luminescence, 48 h; Potency: tumour line A unless noted; series mostly up to 46 µM
Procedure, shortened: as §2
Tags describe the fitted curve by direction and shape.

With `Cc1csc(-c2nnc(Nc3ccc(Oc4ncccc4-c4ccnc(N)n4)cc3)c3ccccc23)c1` the Potency (Es-2) was inconclusive: 39.8 µM [cytotoxic, single point], the Potency (SKOV3) was inconclusive: 12.6 µM [cytotoxic, partial curve, poor fit] and the Potency (Tov112D) was inconclusive: 7.08 µM [cytotoxic, partial curve, poor fit].

For `COc1cc(-c2nn(C3CCC(N4CCN(C(C)=O)CC4)CC3)c3ncnc(N)c23)ccc1NC(=O)c1cc2ccccc2n1C` (stereo unspecified), the Potency (CASKI) was inconclusive: 1.78 µM [cytotoxic, full curve], the Potency (PA-1) was inconclusive: 2 µM [cytotoxic, full curve, poor fit] and the Potency (Tov-21-G) was inconclusive: 0.447 µM [cytotoxic, full curve].

With `COc1ccc(-c2cc3nccn3c(Nc3ncccc3C(N)=O)n2)cc1OC` the Potency (Es-2) was “inactive”, the Potency (HeLa) was inconclusive: 3.16 µM [cytotoxic, full curve, poor fit] and the Potency (JEG-3) was inconclusive: 7.08 µM [cytotoxic, single point]. The Potency (PA-1) was active: 3.55 µM, the Potency (SKOV3) was inconclusive: 2.24 µM [cytotoxic, full curve, poor fit] and the Potency (Tov-21-G) was inconclusive: 5.01 µM [cytotoxic, full curve, poor fit]. For the same molecule, the activity change, negative = inhibition [1] was inactive: -22.4%.

For `CCc1cncnc1N1CCN(Cc2nc3ccc(C(F)(F)F)cc3[nH]2)CC1`, the Potency (Es-2) was “inactive” and the Potency (SKOV3) was inconclusive: 25.1 µM [cytotoxic, single point].

With `COc1nc(N)nc2c1ncn2[C@@H]1O[C@H](CO)[C@@H](O)[C@@H]1O` the Potency (Es-2) was “inactive” and the Potency (JEG-3) was “inactive”.

In the case of `Cc1cc(C(C)Nc2ccccc2)c2nc(N3CCOCC3)cc(=O)n2c1` (stereo unspecified), the Potency (CASKI) was inconclusive: 22.4 µM [cytotoxic, partial curve, poor fit] and the Potency (Tov-21-G) was “inactive”.

With `C=CCn1c(=O)c2cnc(Nc3ccc(N4CCN(C)CC4)cc3)nc2n1-c1cccc(C(C)(C)O)n1` the Potency (Es-2) was active: 1.26 µM, the Potency (HeLa) was active: 0.708 µM and the Potency (Hek293T) was active: 0.631 µM. The Potency (JEG-3) was active: 3.55 µM, the Potency (OV90) was inconclusive: 2.24 µM [cytotoxic, full curve] and the Potency (PA-1) was active: 1.58 µM. For the same molecule, the Potency (SKOV3) was active: 0.447 µM and the Potency (Tov-21-G) was active: 0.631 µM.

With `CC(=O)[C@H]1CC[C@H]2[C@@H]3CC=C4C[C@@H](O)CC[C@]4(C)[C@H]3CC[C@]12C` the Potency (HeLa) was inconclusive: 31.6 µM [cytotoxic, single point].

For `O=C(O)c1ccc(-n2nc(-c3ccccc3O)nc2-c2ccccc2O)cc1`, the Potency (Es-2) was inconclusive: 12.6 µM [cytotoxic, partial curve, poor fit], the Potency (Hek293T) was inconclusive: 25.1 µM [cytotoxic, single point] and the Potency (JEG-3) was inconclusive: 25.1 µM [cytotoxic, single point]. For the same molecule, the Potency (OV90) was inconclusive: 35.5 µM [cytotoxic, single point], the Potency (Tov-21-G) was inconclusive: 17.8 µM [cytotoxic, partial curve] and the Potency (Tov112D) was inconclusive: 31.6 µM [cytotoxic, single point]. The Potency (astro) was inconclusive: 7.08 µM [inhibitor, partial curve].

For `O=C(Nc1cccc2c(=O)cc(-c3nn[nH]n3)oc12)c1ccc(OCCCCc2ccccc2)cc1`, the Potency (Es-2) was inconclusive: 39.8 µM [rising, partial curve, poor fit], the Potency (OV90) was inconclusive: 39.8 µM [rising, single point] and the Potency [2] was inconclusive: 7.94 µM [inhibitor, full curve].

For `CC(C)(N)C(=O)N[C@H](COCc1ccccc1)C(=O)N1CCC2(CC1)CN(S(C)(=O)=O)c1ccccc12`, the Potency (Es-2) was inconclusive: 35.5 µM [cytotoxic, single point], the Potency (Hek293T) was inconclusive: 28.2 µM [cytotoxic, single point] and the Potency (SKOV3) was inconclusive: 39.8 µM [cytotoxic, single point].

For `COC(=O)N[C@H](C(=O)N[C@@H](Cc1ccccc1)[C@@H](O)CN(Cc1ccc(-c2ccccn2)cc1)NC(=O)[C@@H](NC(=O)OC)C(C)(C)C)C(C)(C)C`, the Potency (CASKI) was “inactive” and the Potency [2] was active: 11.2 µM.

In the case of `Cc1cn([C@H]2C[C@H](N=[N+]=[N-])[C@@H](CO)O2)c(=O)[nH]c1=O`, the Potency (CASKI) was inconclusive: 39.8 µM [cytotoxic, single point], the Potency (PA-1) was inconclusive: 31.6 µM [cytotoxic, partial curve, poor fit] and the Potency [2] was inconclusive: 20 µM [inhibitor, partial curve, poor fit] and inconclusive: 35.5 µM [inhibitor, partial curve, poor fit].

In the case of `C=CC(=O)Nc1cc2c(Nc3ccc(F)c(Cl)c3)ncnc2cc1OCCCN1CCOCC1`, the Potency (CASKI) was active: 8.91 µM, the Potency (SKOV3) was active: 3.16 µM and the Potency (Tov-21-G) was inconclusive: 7.08 µM [cytotoxic, partial curve]. For the same molecule, the activity change, negative = inhibition [1] was inactive: -26.8%.

For `CCCCOc1c(C(=O)c2c(F)cc(C)cc2F)cnc2n[nH]cc12`, the Potency (Es-2) was inconclusive: 14.1 µM [cytotoxic, partial curve, poor fit], the Potency (HeLa) was active: 8.91 µM and the Potency (Hek293T) was inconclusive: 10 µM [cytotoxic, partial curve]. The Potency (OV90) was inconclusive: 8.91 µM [cytotoxic, single point], the Potency (Tov-21-G) was inconclusive: 8.91 µM [cytotoxic, partial curve, poor fit] and the Potency (Tov112D) was inconclusive: 14.1 µM [cytotoxic, partial curve, poor fit].
